Results reported in the supplement of paper PMC4967469.
The IC50 comes from the fitted curve, where viability falls to half of the control; fits outside the tested doses are given as limits. AUC sums up the same curve from the lowest dose to the 256-fold higher top dose; the more sensitive the line, the further below 1. For some assays here: A top dose marked as inferred was calculated from the reported fits.

How the values were obtained:
Experiment in all cases: Viability of human cancer cell lines after 72 h of drug (GDSC screen)
Vismodegib = compound: CS(=O)(=O)c1ccc(C(=O)Nc2ccc(Cl)c(-c3ccccn3)c2)c(Cl)c1 [Vismodegib]; conditions: top dose 10 µM; top dose inferred
Protocol: (§1)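 Human cancer cell lines in 384-well plates, medium with 10% serum, drug for 72 h over a 256-fold dose range (nine 2-fold or five 4-fold steps up to the top dose). Adherent lines were fixed and stained with the nucleic acid dye Syto60, suspension lines read with resazurin; signal relative to control wells, capped at 0 and 100%. One two-parameter sigmoid per drug and line, fitted in a mixed model over all curves with the slope shared within a line.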

TG101348 = compound: Cc1cnc(Nc2ccc(OCCN3CCCC3)cc2)nc1Nc1cccc(S(=O)(=O)NC(C)(C)C)c1 [TG101348]; conditions: top dose 10.24 µM
Protocol: as §1

BMX-IN-1 (QL-XII-61) = compound: C=CC(=O)Nc1cc(-n2c(=O)ccc3cnc4ccc(-c5ccc(NS(C)(=O)=O)cc5)cc4c32)ccc1C [BMX-IN-1 (QL-XII-61)]; conditions: top dose 10 µM; top dose inferred
Protocol: as §1

BIX02189 = compound: CN(C)Cc1cccc(N=C(c2ccccc2)c2c(O)[nH]c3cc(C(=O)N(C)C)ccc23)c1 [BIX02189]; conditions: top dose 20 µM; top dose inferred
Protocol: as §1

17-AAG = compound: C=CCNC1=C2C[C@@H](C)C[C@H](OC)[C@H](O)[C@@H](C)/C=C(\C)[C@H](OC(N)=O)[C@@H](OC)/C=C\C=C(/C)C(=O)NC(=CC1=O)C2=O [17-AAG]; conditions: top dose 1 µM
Protocol: as §1

UNC1215 = compound: O=C(c1ccc(C(=O)N2CCC(N3CCCC3)CC2)c(Nc2ccccc2)c1)N1CCC(N2CCCC2)CC1 [UNC1215]; conditions: top dose 1 µM; top dose inferred
Protocol: as §1

CCT018159 = compound: CCc1cc(-c2n[nH]c(C)c2-c2ccc3c(c2)OCCO3)c(O)cc1O [CCT018159]; conditions: top dose 10 µM; top dose inferred
Protocol: as §1

OSI-027 = compound: COc1cccc2cc(-c3nc([C@H]4CC[C@H](C(=O)O)CC4)n4ncnc(N)c34)[nH]c12 [OSI-027]; conditions: top dose 20 µM
Protocol: as §1

VX-11e = compound: Cc1cnc(Nc2ccc(F)cc2Cl)nc1-c1c[nH]c(C(=O)N[C@H](CO)c2cccc(Cl)c2)c1 [VX-11e]; conditions: top dose 5.12 µM; top dose inferred
Protocol: as §1

Dimethyloxalylglycine = compound: COC(=O)CNC(=O)C(=O)OC [Dimethyloxalylglycine]; conditions: top dose 4000 µM; top dose inferred
Protocol: as §1

Doxorubicin = compound: COc1cccc2c1C(=O)c1c(O)c3c(c(O)c1C2=O)C[C@@](O)(C(=O)CO)C[C@@H]3O[C@H]1C[C@H](N)[C@H](O)[C@H](C)O1 [Doxorubicin]; conditions: top dose 1.024 µM
Protocol: as §1

| Cell Line | AUC (Vismodegib) | IC50 (Vismodegib) [µM] | AUC (TG101348) | IC50 (TG101348) [µM] | AUC (BMX-IN-1 (QL-XII-61)) | IC50 (BMX-IN-1 (QL-XII-61)) [µM] | AUC (BIX02189) | IC50 (BIX02189) [µM] | AUC (17-AAG) | IC50 (17-AAG) [µM] | AUC (UNC1215) | IC50 (UNC1215) [µM] | AUC (CCT018159) | IC50 (CCT018159) [µM] | AUC (OSI-027) | IC50 (OSI-027) [µM] | AUC (VX-11e) | IC50 (VX-11e) [µM] | AUC (Dimethyloxalylglycine) | IC50 (Dimethyloxalylglycine) [µM] | AUC (Doxorubicin) | IC50 (Doxorubicin) [µM] |
| --- | --- | --- | --- | --- | --- | --- | --- | --- | --- | --- | --- | --- | --- | --- | --- | --- | --- | --- | --- | --- | --- | --- |
| SLVL (B-cell lymphoma, suspension) | 0.981 | > 10 | 0.606 | 1.28 | 0.939 | > 10 | 0.875 | > 20 | 0.891 | > 1 | 0.98 | > 1 | 0.964 | > 10 | 0.216 | 0.173 | 0.882 | > 5.12 | 0.876 | > 4000 | 0.537 | 0.0812 |
| AMO-1 (haematopoietic neoplasm, suspension) | 0.991 | > 10 | 0.833 | 5.35 | 0.949 | > 10 | 0.866 | 13.8 | 0.701 | 0.209 | 0.98 | > 1 | 0.942 | > 10 | 0.363 | 0.554 | 0.928 | > 5.12 | 0.649 | 605 | 0.699 | 0.21 |
| CAL-78 (chondrosarcoma, adherent) | 0.986 | > 10 | 0.911 | > 10.2 | 0.981 | > 10 | 0.948 | > 20 | 0.851 | 0.943 | 0.985 | > 1 | 0.943 | > 10 | 0.986 | > 20 | 0.985 | > 5.12 | 0.824 | 2840 | 0.901 | > 1.02 |
| MN-60 (B-cell leukaemia, suspension) | 0.98 | > 10 | 0.775 | 4.22 | 0.922 | > 10 | 0.931 | > 20 | 0.988 | > 1 | 0.98 | > 1 | 0.981 | > 10 | 0.268 | 0.265 | 0.986 | > 5.12 | 0.417 | 146 | 0.821 | 0.623 |
| HCC1395 (breast, adherent) | 0.983 | > 10 | 0.913 | > 10.2 | 0.968 | > 10 | 0.928 | > 20 | 0.904 | > 1 | 0.983 | > 1 | 0.972 | > 10 | 0.94 | > 20 | 0.98 | > 5.12 | 0.842 | 3680 | 0.924 | > 1.02 |
| EC-GI-10 (oesophagus, adherent) | 0.987 | > 10 | 0.989 | > 10.2 | 0.981 | > 10 | 0.972 | > 20 | 0.871 | 0.929 | 0.973 | > 1 | 0.796 | 4.64 | 0.984 | > 20 | 0.973 | > 5.12 | 0.929 | > 4000 | 0.965 | > 1.02 |
| LB831-BLC (bladder, adherent) | 0.986 | > 10 | 0.905 | > 10.2 | 0.979 | > 10 | 0.985 | > 20 | 0.639 | 0.153 | 0.986 | > 1 | 0.962 | > 10 | 0.757 | 7 | 0.981 | > 5.12 | 0.639 | 611 | 0.707 | 0.248 |
| DG-75 (Burkitt lymphoma, suspension) | 0.928 | > 10 | 0.863 | 9.02 | 0.919 | > 10 | 0.943 | > 20 | 0.809 | 0.529 | 0.984 | > 1 | 0.826 | 6.14 | 0.735 | 5.92 | 0.982 | > 5.12 | 0.632 | 581 | 0.852 | 0.808 |
| VMRC-RCZ (kidney, adherent) | 0.964 | > 10 | 0.867 | > 10.2 | 0.939 | > 10 | 0.945 | > 20 | 0.654 | 0.18 | 0.981 | > 1 | 0.955 | > 10 | 0.307 | 0.325 | 0.962 | > 5.12 | 0.68 | 869 | 0.49 | 0.06 |
| DOK (head and neck, adherent) | 0.823 | > 10 | 0.81 | 9.17 | 0.954 | > 10 | 0.957 | > 20 | 0.371 | 0.0231 | 0.972 | > 1 | 0.859 | > 10 | 0.835 | > 20 | 0.964 | > 5.12 | 0.903 | > 4000 | 0.839 | > 1.02 |
| SW48 (large intestine, adherent) | 0.985 | > 10 | 0.943 | > 10.2 | 0.904 | > 10 | 0.979 | > 20 | 0.417 | 0.037 | 0.985 | > 1 | 0.812 | 5.32 | 0.848 | 14.7 | 0.849 | 3.83 | 0.797 | 1870 | 0.515 | 0.0702 |
| NCI-H1993 (lung adenocarcinoma, adherent) | 0.965 | > 10 | 0.897 | > 10.2 | 0.918 | > 10 | 0.979 | > 20 | 0.92 | > 1 | 0.981 | > 1 | 0.799 | 6.66 | 0.818 | 16.2 | 0.898 | > 5.12 | 0.521 | 290 | 0.877 | > 1.02 |
| 451Lu (melanoma, adherent) | 0.944 | > 10 | 0.973 | > 10.2 | 0.975 | > 10 | 0.981 | > 20 | 0.496 | 0.0611 | 0.988 | > 1 | 0.852 | 7.23 | 0.65 | 3.18 | 0.761 | 1.74 | 0.733 | 1120 | 0.615 | 0.131 |
| 8505C (thyroid, adherent) | 0.921 | > 10 | 0.821 | 6.39 | 0.977 | > 10 | 0.94 | > 20 | 0.864 | 0.966 | 0.957 | > 1 | 0.908 | > 10 | 0.549 | 1.72 | 0.848 | 4.17 | 0.624 | 561 | 0.336 | 0.0217 |
| LAN-6 (neuroblastoma, adherent) | 0.985 | > 10 | 0.748 | 3.83 | 0.984 | > 10 | 0.974 | > 20 | 0.951 | > 1 | 0.977 | > 1 | 0.978 | > 10 | 0.85 | 19.8 | 0.934 | > 5.12 | 0.768 | 1770 | 0.69 | 0.244 |
| HSC-39 (stomach, suspension) | 0.952 | > 10 | 0.586 | 1.06 | 0.981 | > 10 | 0.989 | > 20 | 0.481 | 0.056 | 0.991 | > 1 | 0.883 | 8.11 | 0.69 | 3.91 | 0.99 | > 5.12 | 0.851 | 2420 | 0.99 | > 1.02 |
| LCLC-97TM1 (large cell lung carcinoma, adherent) | 0.934 | > 10 | 0.598 | 1.23 | 0.855 | 9.25 | 0.838 | 15.4 | 0.577 | 0.104 | 0.97 | > 1 | 0.901 | > 10 | 0.232 | 0.19 | 0.766 | 2.07 | 0.417 | 144 | 0.246 | 0.011 |
| CAL-27 (head and neck, adherent) | 0.899 | > 10 | 0.87 | 9.83 | 0.963 | > 10 | 0.963 | > 20 | 0.695 | 0.222 | 0.97 | > 1 | 0.845 | 7.4 | 0.774 | 7.98 | 0.945 | > 5.12 | 0.817 | 2290 | 0.324 | 0.0205 |
| CHSA0108 (chondrosarcoma, adherent) | 0.983 | > 10 | 0.844 | 9.06 | 0.903 | > 10 | 0.86 | > 20 | 0.851 | 0.959 | 0.98 | > 1 | 0.834 | 7.96 | 0.899 | > 20 | 0.874 | > 5.12 | 0.665 | 776 | 0.81 | 0.646 |
| MZ2-MEL (melanoma, adherent) | 0.964 | > 10 | 0.728 | 3.24 | 0.96 | > 10 | 0.95 | > 20 | 0.553 | 0.0894 | 0.97 | > 1 | 0.922 | > 10 | 0.192 | 0.124 | 0.744 | 1.83 | 0.594 | 474 | 0.388 | 0.0298 |
| COR-L95 (small cell lung carcinoma, adherent) | 0.987 | > 10 | 0.854 | 10.2 | 0.961 | > 10 | 0.971 | > 20 | 0.915 | > 1 | 0.985 | > 1 | 0.986 | > 10 | 0.654 | 3.59 | 0.982 | > 5.12 | 0.639 | 646 | 0.768 | 0.445 |
| NCI-H1436 (small cell lung carcinoma, suspension) | 0.984 | > 10 | 0.892 | > 10.2 | 0.816 | 6.57 | 0.985 | > 20 | 0.955 | > 1 | 0.944 | > 1 | 0.977 | > 10 | 0.682 | 4.36 | 0.985 | > 5.12 | 0.725 | 1210 | 0.927 | > 1.02 |
| SW948 (large intestine, adherent) | 0.981 | > 10 | 0.834 | > 10.2 | 0.98 | > 10 | 0.96 | > 20 | 0.951 | > 1 | 0.98 | > 1 | 0.982 | > 10 | 0.654 | 4.09 | 0.787 | 3.47 | 0.835 | > 4000 | 0.964 | > 1.02 |
